# Laboratory results reported in publication PMC9911399, “Two distinct binding modes provide the RNA-binding protein RbFox with extraordinary sequence specificity”.
# Numbering of substitutions follows the chain as printed; changes in the protein carry UniProt numbers. This is one part of the list.
# T1: RBFOX1 RRM RbFoxmut (Fox-RRM*) (Homo sapiens, UniProt Q9NWB1 109-208, R118D;E147R;N151S;E152T)
# T1 sequence: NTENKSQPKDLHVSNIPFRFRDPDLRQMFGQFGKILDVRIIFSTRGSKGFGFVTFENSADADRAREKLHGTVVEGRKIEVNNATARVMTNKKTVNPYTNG
# B1: UCGGCUC (DNA:RNA)
# RNA: GGGAGACCGGAAUUCAGAUUGUCCUCGGCUCUUAAAUCCCGUCGUAGCCACCA
# DNA 1: CAATCTGAATTCCGGTCTCCC
# DNA 2: TGGTGGCTACGACGGGATT
# B2: UGCUAAU (DNA:RNA)
# RNA: B1 RNA with C26G, G27C, G28U, C29A, U30A, C31U
# DNA 1: CAATCTGAATTCCGGTCTCCC
# DNA 2: TGGTGGCTACGACGGGATT
# B3: GCUUCGG (DNA:RNA)
# RNA: B1 RNA with U25G, G27U, G28U, U30G, C31G
# DNA 1: CAATCTGAATTCCGGTCTCCC
# DNA 2: TGGTGGCTACGACGGGATT
# B4: AAAACGC (DNA:RNA)
# RNA: B1 RNA with U25A, C26A, G27A, G28A, U30G
# DNA 1: CAATCTGAATTCCGGTCTCCC
# DNA 2: TGGTGGCTACGACGGGATT
# B5: ACGCCAC (DNA:RNA)
# RNA: B1 RNA with U25A, G28C, U30A
# DNA 1: CAATCTGAATTCCGGTCTCCC
# DNA 2: TGGTGGCTACGACGGGATT
# B6: AUCCGUG (DNA:RNA)
# RNA: B1 RNA with U25A, C26U, G27C, G28C, C29G, C31G
# DNA 1: CAATCTGAATTCCGGTCTCCC
# DNA 2: TGGTGGCTACGACGGGATT
# B7: CGGAUUG (DNA:RNA)
# RNA: B1 RNA with U25C, C26G, G28A, C29U, C31G
# DNA 1: CAATCTGAATTCCGGTCTCCC
# DNA 2: TGGTGGCTACGACGGGATT
# B8: UGCGCAG (DNA:RNA)
# RNA: B1 RNA with C26G, G27C, U30A, C31G
# DNA 1: CAATCTGAATTCCGGTCTCCC
# DNA 2: TGGTGGCTACGACGGGATT
# B9: GCAUCUU (DNA:RNA)
# RNA: B1 RNA with U25G, G27A, G28U, C31U
# DNA 1: CAATCTGAATTCCGGTCTCCC
# DNA 2: TGGTGGCTACGACGGGATT
# B10: GUCGGGU (DNA:RNA)
# RNA: B1 RNA with U25G, C26U, G27C, C29G, U30G, C31U
# DNA 1: CAATCTGAATTCCGGTCTCCC
# DNA 2: TGGTGGCTACGACGGGATT
# B11: CACCAAC (DNA:RNA)
# RNA: B1 RNA with U25C, C26A, G27C, G28C, C29A, U30A
# DNA 1: CAATCTGAATTCCGGTCTCCC
# DNA 2: TGGTGGCTACGACGGGATT
# B12: UGACUGU (DNA:RNA)
# RNA: B1 RNA with C26G, G27A, G28C, C29U, U30G, C31U
# DNA 1: CAATCTGAATTCCGGTCTCCC
# DNA 2: TGGTGGCTACGACGGGATT
# B13: AUAAGUU (DNA:RNA)
# RNA: B1 RNA with U25A, C26U, G27A, G28A, C29G, C31U
# DNA 1: CAATCTGAATTCCGGTCTCCC
# DNA 2: TGGTGGCTACGACGGGATT
# B14: AGCACUC (DNA:RNA)
# RNA: B1 RNA with U25A, C26G, G27C, G28A
# DNA 1: CAATCTGAATTCCGGTCTCCC
# DNA 2: TGGTGGCTACGACGGGATT
# B15: CAACGAU (DNA:RNA)
# RNA: GGGAGACCGGAAUUCAGAUUGUCCCAACGAUUUAAAUCCCGUCGUAGCCACCA
# DNA 1: CAATCTGAATTCCGGTCTCCC
# DNA 2: TGGTGGCTACGACGGGATT
# B16: UUACUCG (DNA:RNA)
# RNA: B15 RNA with C25U, A26U, G29U, A30C, U31G
# DNA 1: CAATCTGAATTCCGGTCTCCC
# DNA 2: TGGTGGCTACGACGGGATT
# B17: ACCGGGU (DNA:RNA)
# RNA: B15 RNA with C25A, A26C, A27C, C28G, A30G
# DNA 1: CAATCTGAATTCCGGTCTCCC
# DNA 2: TGGTGGCTACGACGGGATT
# B18: AAUGGUG (DNA:RNA)
# RNA: B15 RNA with C25A, A27U, C28G, A30U, U31G
# DNA 1: CAATCTGAATTCCGGTCTCCC
# DNA 2: TGGTGGCTACGACGGGATT
# B19: CGGCUAC (DNA:RNA)
# RNA: B15 RNA with A26G, A27G, G29U, U31C
# DNA 1: CAATCTGAATTCCGGTCTCCC
# DNA 2: TGGTGGCTACGACGGGATT
# B20: UCUCAUC (DNA:RNA)
# RNA: B1 RNA with G27U, G28C, C29A
# DNA 1: CAATCTGAATTCCGGTCTCCC
# DNA 2: TGGTGGCTACGACGGGATT
# B21: UUUGAGC (DNA:RNA)
# RNA: B1 RNA with C26U, G27U, C29A, U30G
# DNA 1: CAATCTGAATTCCGGTCTCCC
# DNA 2: TGGTGGCTACGACGGGATT
# B22: UCCCUUG (DNA:RNA)
# RNA: B1 RNA with G27C, G28C, C29U, C31G
# DNA 1: CAATCTGAATTCCGGTCTCCC
# DNA 2: TGGTGGCTACGACGGGATT
# B23: CGUAAUA (DNA:RNA)
# RNA: B15 RNA with A26G, A27U, C28A, G29A, A30U, U31A
# DNA 1: CAATCTGAATTCCGGTCTCCC
# DNA 2: TGGTGGCTACGACGGGATT
# B24: GUCCUAU (DNA:RNA)
# RNA: B15 RNA with C25G, A26U, A27C, G29U
# DNA 1: CAATCTGAATTCCGGTCTCCC
# DNA 2: TGGTGGCTACGACGGGATT
# B25: UCGACAC (DNA:RNA)
# RNA: B1 RNA with G28A, U30A
# DNA 1: CAATCTGAATTCCGGTCTCCC
# DNA 2: TGGTGGCTACGACGGGATT
# B26: GCUUGCG (DNA:RNA)
# RNA: B15 RNA with C25G, A26C, A27U, C28U, A30C, U31G
# DNA 1: CAATCTGAATTCCGGTCTCCC
# DNA 2: TGGTGGCTACGACGGGATT
# B27: ACCAUGU (DNA:RNA)
# RNA: B15 RNA with C25A, A26C, A27C, C28A, G29U, A30G
# DNA 1: CAATCTGAATTCCGGTCTCCC
# DNA 2: TGGTGGCTACGACGGGATT
# B28: UGGAUGG (DNA:RNA)
# RNA: B1 RNA with C26G, G28A, C29U, U30G, C31G
# DNA 1: CAATCTGAATTCCGGTCTCCC
# DNA 2: TGGTGGCTACGACGGGATT
# B29: CACGCUG (DNA:RNA)
# RNA: B1 RNA with U25C, C26A, G27C, C31G
# DNA 1: CAATCTGAATTCCGGTCTCCC
# DNA 2: TGGTGGCTACGACGGGATT
# B30: UGCCGCC (DNA:RNA)
# RNA: B15 RNA with C25U, A26G, A27C, A30C, U31C
# DNA 1: CAATCTGAATTCCGGTCTCCC
# DNA 2: TGGTGGCTACGACGGGATT
# B31: UGAGACU (DNA:RNA)
# RNA: B15 RNA with C25U, A26G, C28G, G29A, A30C
# DNA 1: CAATCTGAATTCCGGTCTCCC
# DNA 2: TGGTGGCTACGACGGGATT
# Target: T1, RBFOX1 RRM RbFoxmut (Fox-RRM*)
# Assay: EMSA; HiTS-Eq, 1 nM pool, 10 min; buffer printed only for the single-RNA assays: 10 mM Tris pH 7.5, 150 mM NaCl, 3.4 mM EDTA, 0.001% NP-40, 30 C
# Settings: tags: His6 N-terminal (pET28a); label: 5' 32P
# Method in brief: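 A pool of RNA with 7 randomized nucleotides, 5′-radiolabelled and with DNA-annealed flanks, was equilibrated at 1 nM for 10 min in 50 µL with purified RbFox RRM, wild type or mutant, across increasing protein concentrations. Free RNA was separated by 8% native PAGE, excised, reverse-transcribed, barcoded by PCR and sequenced. Relative association constants were obtained from read-count changes of each RNA species versus the control reaction and normalised to the cognate motif.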
row,Binder,binding signal
1,B1,0.0985 KA relative to UGCAUGU
2,B2,0.0977 KA relative to UGCAUGU
3,B3,0.0897 KA relative to UGCAUGU
4,B4,0.0603 KA relative to UGCAUGU
5,B5,0.0804 KA relative to UGCAUGU
6,B6,0.12 KA relative to UGCAUGU
7,B7,0.522 KA relative to UGCAUGU
8,B8,0.0904 KA relative to UGCAUGU
9,B9,0.33 KA relative to UGCAUGU
10,B10,0.132 KA relative to UGCAUGU
11,B11,0.0712 KA relative to UGCAUGU
12,B12,0.214 KA relative to UGCAUGU
13,B13,0.113 KA relative to UGCAUGU
14,B14,0.0463 KA relative to UGCAUGU
15,B15,0.0618 KA relative to UGCAUGU
16,B16,0.103 KA relative to UGCAUGU

row,Binder,binding signal
1,B17,0.0688 KA relative to UGCAUGU
2,B18,0.0986 KA relative to UGCAUGU
3,B19,0.0923 KA relative to UGCAUGU
4,B20,0.0794 KA relative to UGCAUGU
5,B21,0.122 KA relative to UGCAUGU
6,B22,0.124 KA relative to UGCAUGU
7,B23,0.126 KA relative to UGCAUGU
8,B24,0.104 KA relative to UGCAUGU
9,B25,0.0688 KA relative to UGCAUGU
10,B26,0.148 KA relative to UGCAUGU
11,B27,0.102 KA relative to UGCAUGU
12,B28,0.332 KA relative to UGCAUGU
13,B29,0.109 KA relative to UGCAUGU
14,B30,0.121 KA relative to UGCAUGU
15,B31,0.0604 KA relative to UGCAUGU
